Measurements taken from the antibiotic and cytotoxicity screens of Wong et al. (2023).
The other results are listed elsewhere or left out.

Test system: HSkMC (human skeletal muscle cells)
Experiment: cytotoxicity call (relative viability < 0.9)
Settings: 10 µM

Row | SMILES | cytotoxicity call
1 | Cc1csc2sc(COC(=O)Nc3ccccc3)c(C)c12 | inactive
2 | COc1ccc(NC(=O)N(C)C[C@H]2Oc3c(NS(=O)(=O)c4cn(C)cn4)cccc3C(=O)N([C@H](C)CO)C[C@H]2C)cc1 | inactive
3 | CC(C)NC(=O)Nc1ccc2c(c1)C(=O)N([C@H](C)CO)C[C@H](C)[C@@H](CN(C)C(=O)Nc1ccccc1)OCCCC[C@H](C)O2 | inactive
4 | COc1ccc(NC(=O)N(C)C[C@@H]2Oc3c(NC(=O)C4CC4)cccc3C(=O)N([C@@H](C)CO)C[C@@H]2C)cc1 | inactive
5 | Cc1noc(C)c1S(=O)(=O)N(C)C[C@@H]1OCc2cn(nn2)CCCC(=O)N([C@@H](C)CO)C[C@H]1C | inactive
6 | Cc1noc(C)c1S(=O)(=O)Nc1cccc2c1O[C@@H](CN(C)C(=O)Nc1ccc3c(c1)OCO3)[C@@H](C)CN([C@@H](C)CO)C2=O | inactive
7 | COc1ccc(NC(=O)N(C)C[C@H]2Oc3ccc(NS(=O)(=O)c4cn(C)cn4)cc3C(=O)N([C@H](C)CO)C[C@H]2C)cc1 | inactive
8 | NNC(=O)c1cccc([N+](=O)[O-])c1 | inactive
9 | Cc1ccc(S(=O)(=O)Nc2ccc3c(c2)C(=O)N([C@@H](C)CO)C[C@H](C)[C@@H](CN(C)C(=O)C2CCCCC2)OCCCC[C@H](C)O3)cc1 | inactive
10 | COc1ccc(CN(C)C[C@@H]2OCCCC[C@H](C)Oc3ccc(NC(=O)Nc4ccc5c(c4)OCO5)cc3C(=O)N([C@H](C)CO)C[C@@H]2C)cc1 | inactive
11 | C[C@H]1CCCCO[C@H](CN(C)S(=O)(=O)c2ccc(F)cc2)[C@@H](C)CN([C@@H](C)CO)C(=O)c2cc(NC(=O)C3CCCCC3)ccc2O1 | inactive
12 | CCCn1nc(C)c(CN)c1C | inactive
13 | C[C@@H]1CCCCO[C@@H](CN(C)C(=O)Cc2ccccc2)[C@H](C)CN([C@H](C)CO)C(=O)c2cc(NC(=O)CCC(F)(F)F)ccc2O1 | inactive
14 | Cc1noc(C)c1S(=O)(=O)Nc1ccc2c(c1)C(=O)N([C@H](C)CO)C[C@H](C)[C@@H](CN(C)C(=O)Nc1ccc(C(F)(F)F)cc1)OCCCC[C@@H](C)O2 | inactive
15 | COc1ccc(S(=O)(=O)Nc2ccc3c(c2)CC(=O)N([C@H](C)CO)C[C@H](C)[C@H](CN(C)Cc2ccc(Oc4ccccc4)cc2)O3)cc1 | inactive
16 | C/C=C/c1ccc2c(c1)O[C@H](CN(C)C(=O)c1ccc3c(c1)OCO3)[C@H](C)CN([C@@H](C)CO)S2(=O)=O | inactive
17 | CO[C@@H]1CN(C)C(=O)c2ccc(NS(C)(=O)=O)cc2OC[C@@H](C)N(C(=O)C2CCOCC2)C[C@@H]1C | inactive
18 | COc1ccc(NC(=O)N(C)C[C@H]2Oc3ccc(NC(=O)CCCN(C)C)cc3C(=O)N([C@@H](C)CO)C[C@H]2C)cc1 | inactive
19 | COCC#Cc1ccc2c(c1)O[C@@H](CN(C)S(C)(=O)=O)[C@H](C)CN([C@H](C)CO)S2(=O)=O | inactive
20 | CCCNC(=O)N1C[C@]2(CCN(CC2)S(=O)(=O)c2ccc(cc2)OC)c2c(n(c3cc(ccc23)OC)C)[C@@H]1CO | inactive

Row | SMILES | cytotoxicity call
21 | C[C@H](CO)N1C[C@H](C)[C@@H](CN(C)S(C)(=O)=O)Oc2ccc(NC(=O)Cc3cn(C)c4ccccc34)cc2CC1=O | inactive
22 | CC[C@H]1COCCC(=O)N1 | inactive
23 | CO/N=[N+](\[O-])N1CCC[C@H](C(N)=O)C1 | inactive
24 | CN(C)CCCNC(=O)C[C@H]1CC[C@@H]2[C@H](COc3ccc(NS(C)(=O)=O)cc3C(=O)N2C)O1 | inactive
25 | Cc1noc(C)c1S(=O)(=O)Nc1ccc2c(c1)C(=O)N([C@@H](C)CO)C[C@H](C)[C@H](CN(C)Cc1ccncc1)O2 | inactive
26 | COc1cccc(NC(=O)N2C[C@H](O)COC[C@@H]3O[C@@H](CC(=O)NCc4ccccc4F)CC[C@H]32)c1 | inactive
27 | C[C@H](CO)N1C[C@H](C)[C@@H](CN(C)S(=O)(=O)c2ccc(F)cc2)Oc2cc(C3=CCCC3)ccc2S1(=O)=O | inactive
28 | COc1ccccc1NC(=O)N(C)C[C@@H]1Oc2ncc(C#CCN(C)C)cc2C(=O)N([C@H](C)CO)C[C@H]1C | inactive
29 | COc1ccc(CN(C)C[C@H]2Oc3ccc(NC(=O)Nc4cccc5ccccc45)cc3C(=O)N([C@@H](C)CO)C[C@H]2C)cc1 | inactive
30 | O=C(C[C@@H]1CC[C@@H](NC(=O)CN2CCOCC2)[C@@H](CO)O1)NCCc1ccccc1 | inactive
31 | Cc1ccccc1-c1ccc2c(c1)O[C@H](CN(C)C(=O)Nc1ccc(C(F)(F)F)cc1)[C@@H](C)CN([C@H](C)CO)S2(=O)=O | inactive
32 | CO[C@@H]1CN(C)C(=O)c2cc(NC(=O)c3ccc(Oc4ccccc4)cc3)ccc2OC[C@@H](C)N(C(C)=O)C[C@H]1C | inactive
33 | C[C@H](CO)N1C[C@H](C)[C@@H](CN(C)C(=O)c2ccccc2)OCCCC[C@H](C)Oc2ccc(NC(=O)Nc3ccc(F)cc3)cc2C1=O | inactive
34 | C[C@@H]1CCCCO[C@H](CN(C)Cc2ccc(Cl)c(Cl)c2)[C@@H](C)CN([C@@H](C)CO)C(=O)c2cc(NC(=O)C3CCCCC3)ccc2O1 | active
35 | COCc1cn(CC[C@@H]2CC[C@@H](NC(=O)CCN3CCCCC3)[C@@H](CO)O2)nn1 | inactive
36 | NCCOc1cccc(Cl)c1 | inactive
37 | COc1ccc2c3c(n(c2c1)C)[C@H](CO)N(C[C@]13CN(C1)S(=O)(=O)c1ccc(cc1)C)S(=O)(=O)c1ccc(cc1)C | inactive
38 | O=c1[nH]c2ccccc2c2ccccc12 | inactive
39 | C[C@H]1CN([C@@H](C)CO)C(=O)Cc2cc(NC(=O)Nc3ccccc3)ccc2O[C@H]1CN(C)C(=O)Nc1cccc2ccccc12 | inactive
40 | C[C@@H](N)CCCP(=O)(O)O | inactive
